Reference: publication PMC9585968
These are yes or no findings as the source states them, for the method shown. For some of these results: Binding seen in cells or lysates may run through a third protein. Some binding calls cover weakened binding; strength is not graded here. Where a sequence is shown, tags or fusion partners need not be part of it.

Legend:
[1] = biological target: T1, LSM8-GFP (N. benthamiana) (Arabidopsis) (UniProt Q8VYI0); assay: FRET or BRET; FLIM-FRET in N. benthamiana leaf epidermis cells; GFP fusions as donors, mCherry fusions as acceptors
T1 sequence: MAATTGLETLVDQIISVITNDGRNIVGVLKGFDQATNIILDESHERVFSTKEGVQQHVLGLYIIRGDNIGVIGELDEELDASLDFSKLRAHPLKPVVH

[2] = biological target: T2, LSM8, yeast two-hybrid fusion (Arabidopsis) (UniProt Q8VYI0); assay: two-hybrid; GAL4 system (pGBT-9, pGAD424) in S. cerevisiae AH109; growth of serial dilutions on SD-LWH; three colonies for each interaction
T2 sequence: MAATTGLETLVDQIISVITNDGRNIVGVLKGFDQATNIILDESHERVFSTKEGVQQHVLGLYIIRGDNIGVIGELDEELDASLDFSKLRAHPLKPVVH

[3] = biological target: T3, STA1 (STABILIZED1), yeast two-hybrid fusion (Arabidopsis) (UniProt Q9ZT71); assay: as above
T3 sequence: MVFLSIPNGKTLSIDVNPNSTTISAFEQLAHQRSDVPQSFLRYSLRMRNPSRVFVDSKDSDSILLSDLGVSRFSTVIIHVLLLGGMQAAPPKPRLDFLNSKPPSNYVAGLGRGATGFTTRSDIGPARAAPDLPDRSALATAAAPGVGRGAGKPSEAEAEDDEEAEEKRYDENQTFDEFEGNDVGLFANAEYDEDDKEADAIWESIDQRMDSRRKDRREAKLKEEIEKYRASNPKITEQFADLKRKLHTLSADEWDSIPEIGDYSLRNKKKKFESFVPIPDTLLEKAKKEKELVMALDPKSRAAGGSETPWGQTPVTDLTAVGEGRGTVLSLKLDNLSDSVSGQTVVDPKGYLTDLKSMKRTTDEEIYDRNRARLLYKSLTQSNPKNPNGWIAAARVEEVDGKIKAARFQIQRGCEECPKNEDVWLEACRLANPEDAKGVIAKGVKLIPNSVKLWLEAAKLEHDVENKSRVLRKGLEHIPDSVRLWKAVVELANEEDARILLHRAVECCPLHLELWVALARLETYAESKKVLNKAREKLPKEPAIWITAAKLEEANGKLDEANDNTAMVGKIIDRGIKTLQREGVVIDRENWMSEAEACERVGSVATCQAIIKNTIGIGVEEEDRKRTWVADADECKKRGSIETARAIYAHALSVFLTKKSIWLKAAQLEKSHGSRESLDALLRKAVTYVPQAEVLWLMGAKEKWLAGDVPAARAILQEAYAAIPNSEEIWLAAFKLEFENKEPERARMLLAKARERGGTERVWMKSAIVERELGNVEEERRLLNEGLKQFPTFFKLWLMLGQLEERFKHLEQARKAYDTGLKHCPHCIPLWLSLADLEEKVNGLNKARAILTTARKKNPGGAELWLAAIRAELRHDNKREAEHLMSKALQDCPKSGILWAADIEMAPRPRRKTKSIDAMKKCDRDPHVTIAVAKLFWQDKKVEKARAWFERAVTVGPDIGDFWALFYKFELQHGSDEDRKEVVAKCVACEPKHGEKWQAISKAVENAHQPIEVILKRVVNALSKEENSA

cYFP-LSM1a (Arabidopsis) = biological target: T4, cYFP-LSM1a (Arabidopsis) (UniProt Q945P8); assay: split reporter; BiFC with YFP halves, transient expression in N. benthamiana leaf epidermal cells, confocal microscopy 3 d after agroinfiltration
T4 sequence: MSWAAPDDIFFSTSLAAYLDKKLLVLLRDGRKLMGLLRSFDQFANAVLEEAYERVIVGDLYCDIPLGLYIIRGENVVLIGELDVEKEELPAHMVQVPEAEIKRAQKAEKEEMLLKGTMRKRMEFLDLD

nYFP-LSM1a (Arabidopsis) = biological target: T5, nYFP-LSM1a (Arabidopsis) (UniProt Q945P8); assay: as above
T5 sequence: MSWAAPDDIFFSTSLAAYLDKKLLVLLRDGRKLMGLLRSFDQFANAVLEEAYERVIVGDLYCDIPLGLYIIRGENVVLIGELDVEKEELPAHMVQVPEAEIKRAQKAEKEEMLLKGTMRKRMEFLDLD

[4] = biological target: T6, LSM8-mCherry (Arabidopsis) (UniProt Q8VYI0); assay: FRET or BRET; FLIM-FRET in N. benthamiana leaf epidermis cells; GFP fusions as donors, mCherry fusions as acceptors
T6 sequence: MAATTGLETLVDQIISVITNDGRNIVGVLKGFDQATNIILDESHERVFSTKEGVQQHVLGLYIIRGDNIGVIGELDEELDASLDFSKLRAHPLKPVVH

B1: LSM2-mCherry (protein, UniProt Q1H595 1-93)
chain: MLFFSYFKDLVGQEVTVELKNDLAIRGTLHSVDQYLNIKLENTRVVDQDKYPHMLSVRNCFIRGSVVRYVQLPKDGVDVDLLHDAARREARGG
[1]
  binding: binds

B2: LSM2, yeast two-hybrid fusion (protein, UniProt Q1H595 1-93)
chain: MLFFSYFKDLVGQEVTVELKNDLAIRGTLHSVDQYLNIKLENTRVVDQDKYPHMLSVRNCFIRGSVVRYVQLPKDGVDVDLLHDAARREARGG
[2]
  binding: binds

B3: MDF, yeast two-hybrid fusion (protein, UniProt Q9LFE0 1-820)
chain: MEVEKSKSRHEIREERADYEGSPVREHRDGRRKEKDHRSKDKEKDYDREKIRDKDHRRDKEKERDRKRSRDEDTEKEISRGRDKEREKDKSRDRVKEKDKEKERNRHKDRENERDNEKEKDKDRARVKERASKKSHEDDDETHKAAERYEHSDNRGLNEGGDNVDAASSGKEASALDLQNRILKMREERKKKAEDASDALSWVARSRKIEEKRNAEKQRAQQLSRIFEEQDNLNQGENEDGEDGEHLSGVKVLHGLEKVVEGGAVILTLKDQSVLTDGDVNNEIDMLENVEIGEQKRRNEAYEAAKKKKGIYDDKFNDDPGAEKKMLPQYDEAATDEGIFLDAKGRFTGEAEKKLEELRKRIQGQTTHTFEDLNSSAKVSSDYFSQEEMLKFKKPKKKKQLRKKDKLDLSMLEAEAVASGLGAEDLGSRKDGRRQAMKEEKERIEYEKRSNAYQEAIAKADEASRLLRREQVQPFKRDEDESMVLADDAEDLYKSLEKARRLALIKKEEAGSGPQAVAHLVASSTNQTTDDNTTTGDETQENTVVFTEMGDFVWGLQRENDVRKPESEDVFMEEDVAPKAPVEVKEEHPDGLTEVNDTDMDAAEDSSDTKEITPDENIHEVAVGKGLSGALKLLKDRGTLKEKVEWGGRNMDKKKSKLVGIVDDDGGKESKDKESKDRFKDIRIERTDEFGRTLTPKEAFRLLSHKFHGKGPGKMKEEKRMKQYQEELKLKQMKNSDTPSQSVQRMREAQAQLKTPYLVLSGHVKPGQTSDPQSGFATVEKDVPGSLTPMLGDRKVEHFLGIKRKSEPGNSDTPPKRPKP
[3]
  binding: binds
[2]
  binding: no binding

B4: nYFP-MDF (protein, UniProt Q9LFE0 1-820)
chain: MEVEKSKSRHEIREERADYEGSPVREHRDGRRKEKDHRSKDKEKDYDREKIRDKDHRRDKEKERDRKRSRDEDTEKEISRGRDKEREKDKSRDRVKEKDKEKERNRHKDRENERDNEKEKDKDRARVKERASKKSHEDDDETHKAAERYEHSDNRGLNEGGDNVDAASSGKEASALDLQNRILKMREERKKKAEDASDALSWVARSRKIEEKRNAEKQRAQQLSRIFEEQDNLNQGENEDGEDGEHLSGVKVLHGLEKVVEGGAVILTLKDQSVLTDGDVNNEIDMLENVEIGEQKRRNEAYEAAKKKKGIYDDKFNDDPGAEKKMLPQYDEAATDEGIFLDAKGRFTGEAEKKLEELRKRIQGQTTHTFEDLNSSAKVSSDYFSQEEMLKFKKPKKKKQLRKKDKLDLSMLEAEAVASGLGAEDLGSRKDGRRQAMKEEKERIEYEKRSNAYQEAIAKADEASRLLRREQVQPFKRDEDESMVLADDAEDLYKSLEKARRLALIKKEEAGSGPQAVAHLVASSTNQTTDDNTTTGDETQENTVVFTEMGDFVWGLQRENDVRKPESEDVFMEEDVAPKAPVEVKEEHPDGLTEVNDTDMDAAEDSSDTKEITPDENIHEVAVGKGLSGALKLLKDRGTLKEKVEWGGRNMDKKKSKLVGIVDDDGGKESKDKESKDRFKDIRIERTDEFGRTLTPKEAFRLLSHKFHGKGPGKMKEEKRMKQYQEELKLKQMKNSDTPSQSVQRMREAQAQLKTPYLVLSGHVKPGQTSDPQSGFATVEKDVPGSLTPMLGDRKVEHFLGIKRKSEPGNSDTPPKRPKP
cYFP-LSM1a (Arabidopsis)
  binding: no binding

B5: cYFP-MDF (protein, UniProt Q9LFE0 1-820)
chain: MEVEKSKSRHEIREERADYEGSPVREHRDGRRKEKDHRSKDKEKDYDREKIRDKDHRRDKEKERDRKRSRDEDTEKEISRGRDKEREKDKSRDRVKEKDKEKERNRHKDRENERDNEKEKDKDRARVKERASKKSHEDDDETHKAAERYEHSDNRGLNEGGDNVDAASSGKEASALDLQNRILKMREERKKKAEDASDALSWVARSRKIEEKRNAEKQRAQQLSRIFEEQDNLNQGENEDGEDGEHLSGVKVLHGLEKVVEGGAVILTLKDQSVLTDGDVNNEIDMLENVEIGEQKRRNEAYEAAKKKKGIYDDKFNDDPGAEKKMLPQYDEAATDEGIFLDAKGRFTGEAEKKLEELRKRIQGQTTHTFEDLNSSAKVSSDYFSQEEMLKFKKPKKKKQLRKKDKLDLSMLEAEAVASGLGAEDLGSRKDGRRQAMKEEKERIEYEKRSNAYQEAIAKADEASRLLRREQVQPFKRDEDESMVLADDAEDLYKSLEKARRLALIKKEEAGSGPQAVAHLVASSTNQTTDDNTTTGDETQENTVVFTEMGDFVWGLQRENDVRKPESEDVFMEEDVAPKAPVEVKEEHPDGLTEVNDTDMDAAEDSSDTKEITPDENIHEVAVGKGLSGALKLLKDRGTLKEKVEWGGRNMDKKKSKLVGIVDDDGGKESKDKESKDRFKDIRIERTDEFGRTLTPKEAFRLLSHKFHGKGPGKMKEEKRMKQYQEELKLKQMKNSDTPSQSVQRMREAQAQLKTPYLVLSGHVKPGQTSDPQSGFATVEKDVPGSLTPMLGDRKVEHFLGIKRKSEPGNSDTPPKRPKP
nYFP-LSM1a (Arabidopsis)
  binding: no binding

B6: MDF-GFP (protein, UniProt Q9LFE0 1-820)
chain: MEVEKSKSRHEIREERADYEGSPVREHRDGRRKEKDHRSKDKEKDYDREKIRDKDHRRDKEKERDRKRSRDEDTEKEISRGRDKEREKDKSRDRVKEKDKEKERNRHKDRENERDNEKEKDKDRARVKERASKKSHEDDDETHKAAERYEHSDNRGLNEGGDNVDAASSGKEASALDLQNRILKMREERKKKAEDASDALSWVARSRKIEEKRNAEKQRAQQLSRIFEEQDNLNQGENEDGEDGEHLSGVKVLHGLEKVVEGGAVILTLKDQSVLTDGDVNNEIDMLENVEIGEQKRRNEAYEAAKKKKGIYDDKFNDDPGAEKKMLPQYDEAATDEGIFLDAKGRFTGEAEKKLEELRKRIQGQTTHTFEDLNSSAKVSSDYFSQEEMLKFKKPKKKKQLRKKDKLDLSMLEAEAVASGLGAEDLGSRKDGRRQAMKEEKERIEYEKRSNAYQEAIAKADEASRLLRREQVQPFKRDEDESMVLADDAEDLYKSLEKARRLALIKKEEAGSGPQAVAHLVASSTNQTTDDNTTTGDETQENTVVFTEMGDFVWGLQRENDVRKPESEDVFMEEDVAPKAPVEVKEEHPDGLTEVNDTDMDAAEDSSDTKEITPDENIHEVAVGKGLSGALKLLKDRGTLKEKVEWGGRNMDKKKSKLVGIVDDDGGKESKDKESKDRFKDIRIERTDEFGRTLTPKEAFRLLSHKFHGKGPGKMKEEKRMKQYQEELKLKQMKNSDTPSQSVQRMREAQAQLKTPYLVLSGHVKPGQTSDPQSGFATVEKDVPGSLTPMLGDRKVEHFLGIKRKSEPGNSDTPPKRPKP
[4]
  binding: no binding
